Results as given in article PMC4336329 (PLoS ONE, 2015).
Hit rate of the full screen: of about 310,000 compounds, about 14,000 (4.5%) showed an effect of 50% or more. The effect is printed as a negative number. Some of the results follow.

molecular target: human ether-à-go-go-related gene (hERG) potassium channel (human, UniProt Q12809); assay: primary screen, population patch clamp on CHO cells stably expressing hERG
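Further: peak tail current of the secondary pulse compared with the same well before compound.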

human ether-à-go-go-related gene (hERG) potassium channel, sequence (Q12809 whole entry, looked up): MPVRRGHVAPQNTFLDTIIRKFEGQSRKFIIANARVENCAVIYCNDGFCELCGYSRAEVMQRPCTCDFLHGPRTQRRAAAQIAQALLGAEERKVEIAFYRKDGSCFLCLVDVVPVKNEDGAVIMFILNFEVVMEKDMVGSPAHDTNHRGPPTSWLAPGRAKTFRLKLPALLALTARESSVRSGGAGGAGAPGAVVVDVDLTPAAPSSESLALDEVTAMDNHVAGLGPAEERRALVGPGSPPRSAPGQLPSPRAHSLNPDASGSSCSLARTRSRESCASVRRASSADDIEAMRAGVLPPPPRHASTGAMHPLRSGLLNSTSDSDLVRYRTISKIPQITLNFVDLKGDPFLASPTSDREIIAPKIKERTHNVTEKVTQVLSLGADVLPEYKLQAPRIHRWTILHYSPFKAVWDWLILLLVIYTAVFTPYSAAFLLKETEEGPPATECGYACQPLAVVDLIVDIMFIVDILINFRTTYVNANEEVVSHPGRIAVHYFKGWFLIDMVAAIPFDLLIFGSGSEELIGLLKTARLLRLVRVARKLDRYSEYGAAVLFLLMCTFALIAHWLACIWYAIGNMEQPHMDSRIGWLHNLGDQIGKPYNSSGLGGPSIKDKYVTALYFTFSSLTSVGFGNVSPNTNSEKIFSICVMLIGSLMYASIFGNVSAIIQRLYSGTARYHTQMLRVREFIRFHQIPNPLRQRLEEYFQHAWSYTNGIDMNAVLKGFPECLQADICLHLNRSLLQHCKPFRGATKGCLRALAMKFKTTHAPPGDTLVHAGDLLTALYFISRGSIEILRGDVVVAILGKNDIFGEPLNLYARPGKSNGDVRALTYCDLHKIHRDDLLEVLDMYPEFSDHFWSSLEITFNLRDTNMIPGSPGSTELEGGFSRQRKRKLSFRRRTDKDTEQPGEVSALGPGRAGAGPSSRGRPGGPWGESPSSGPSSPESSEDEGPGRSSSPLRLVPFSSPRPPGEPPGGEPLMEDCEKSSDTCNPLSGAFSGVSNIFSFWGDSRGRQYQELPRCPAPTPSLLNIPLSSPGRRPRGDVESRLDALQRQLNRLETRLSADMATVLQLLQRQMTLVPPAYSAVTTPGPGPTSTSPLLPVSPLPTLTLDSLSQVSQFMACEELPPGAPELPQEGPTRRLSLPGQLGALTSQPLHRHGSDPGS

Row | SMILES | hERG current change (%, negative = inhibition) at 10uM
1 | COC(=O)C(CC(=O)c1ccc(C)cc1)n1cccn1 (centres unmarked) | 12.9%
2 | C=CCN1C(=O)NC2(O)C(=O)c3ccccc3C12O (centres unmarked) | 7.55%
3 | Cc1ccc(-n2c(-c3ccco3)nc3nc4ccccc4nc32)cc1F | 4.17%
4 | O=c1[nH]c(CSc2ncnc3sccc23)nc2ccccc12 | 1.46%
5 | COc1cn(-c2ccccc2)nc1C(=O)NCc1ccccc1 | -24.9%
6 | COc1ccc(-c2csc(NC(=O)CCCc3cccs3)n2)cc1 | 14.9%
7 | C#CCOc1ccccc1CNc1ccccc1 | 9.01%
8 | Cc1ccc(C)c(N2CCN(C(=O)c3cc4sccc4n3C)CC2)c1 | 4.68%
9 | COc1ccc2nc(C)cc(SCC(=O)Nc3c(C)cccc3C)c2c1 | -2.19%
10 | Cc1ccc2c(c1)N(CC(=O)N1CCCCC1)C(=O)CO2 | -4.93%
11 | CC(C)c1cccc(C(C)C)c1NC(=O)COc1nncc2ccccc12 | 21%
12 | Fc1ccc(C(c2nnnn2Cc2cccs2)N2CCN(c3ccccc3)CC2)cc1 (centres unmarked) | -21.3%
13 | Cc1ccc(CNC(=O)c2cc(-c3ccccc3)nn2CC2CC(c3cccc([N+](=O)[O-])c3)=NO2)cc1 (centres unmarked) | -8.09%
14 | CCC(C)[C@H]1COCCS(=O)(=O)N1Cc1ccc(C)cc1 (some centres unmarked) | -13%
15 | Cc1cc(=O)[nH]c(SCC(=O)OCc2ccccc2)c1C#N | 14%
16 | CCN1CCN(Cc2c3ccccc3cc3ccccc23)CC1 | 9.14%
17 | Cc1cccc(-n2ccc(=O)c(C(=O)Nc3ccc(S(=O)(=O)N4CCOCC4)cc3)n2)c1 | -2.52%
18 | COC(=O)c1c[nH]n2c(=O)c(C(C)C)c(C)nc12 | 16.9%
19 | COCc1[nH][nH]c(=O)c1C=Nc1ccc(OC(F)(F)F)cc1 | -46.4%
20 | CCOC(=O)c1ccccc1NC(=O)c1ccc2c(SCC(=O)O)c3c(nc2c1)CCCC3 | 5.98%
21 | CC(C)COc1ncnc2c1sc1nc3c(cc12)COC(C)(C)C3 | -4.22%
22 | COc1ccc(CCC(=O)N2CC(C)OC(C)C2)cc1 (centres unmarked) | 5.02%

Row | SMILES | hERG current change (%, negative = inhibition) at 10uM
23 | CC(=O)c1ccc(S(=O)(=O)N2CCC3(CC2)CC(=O)c2ccccc2O3)cc1 | -42.6%
24 | COc1cc(/C=N/N=C2/NC(=O)C(CC(=O)O)S2)ccc1OCc1cccc(Cl)c1 (centres unmarked) | 24.7%
25 | O=C(Cn1nc(-c2ccccc2)ccc1=O)Nc1ccc(-n2cnnn2)cc1 | -14.8%
26 | COc1ccc(OC)c(CC(NC(C)=O)C(=O)NC2CCN(S(=O)(=O)c3ccc(NC(C)=O)cc3)CC2)c1 (centres unmarked) | -8.43%
27 | CC(=O)c1cccc(NC(=O)c2ccc(S(=O)(=O)N3CC(C)OC(C)C3)cc2)c1 (centres unmarked) | 6.36%
28 | CCCCn1c(N)c(N(CCOC)C(=O)COC(=O)/C=C/c2ccc(Br)cc2)c(=O)[nH]c1=O | -3.06%
29 | Cc1nc(NNC(=O)c2ccc(Cl)cc2Cl)cc(-c2ccccc2)n1 | 6.97%
30 | COCCNC(=S)N(C)C1(c2ccccc2Cl)CCCCC1=O (centres unmarked) | 38.3%
31 | Cc1ccc(C)n1-n1cnc2sc3c(c2c1=O)CCC3 | -7.03%
32 | O=[N+]([O-])c1ccc(C2C3C(c4ccccc4)=NC4(CCCCC4)N32)cc1 (centres unmarked) | -1.45%
33 | Cn1c(-c2ccc(C(F)(F)F)cc2)cc2onc(-c3ccccc3)c2c1=O | 7.65%
34 | CC(/C=N/NC(=O)Cc1cccn1C)=C\c1ccccc1 | -11%
35 | CCc1nnc(NC(=O)c2ccc(S(=O)(=O)N(C)Cc3ccccc3)cc2)o1 | -25.6%
36 | CCCC(=O)N(CCc1ccccc1)Cc1nc2ccccc2c(=O)[nH]1 | -15.2%
37 | COc1ccc(CNC(=O)/C=C/c2ccc(OCCCF)cc2)cc1OC | -11.2%
38 | O=C(CSc1ccc(-c2ccccn2)nn1)c1ccc([N+](=O)[O-])cc1 | 0.0194%
39 | CCCCC(=O)Nc1ccc(NC(=O)c2cccs2)cn1 | -18.8%
40 | COc1ccc(C(=O)N/C(=C\c2ccc([N+](=O)[O-])cc2)C(=O)NC(CCSC)C(=O)O)cc1 (centres unmarked) | 9.2%
41 | Cn1nnnc1SCC(=O)Nc1ccc(Br)cc1Cl | -0.151%
42 | CN(Cc1ccc(N(C)C)cc1)C(=O)c1cc2ccccc2o1 | -18.5%
43 | Cc1ccc2nsnc2c1S(=O)(=O)NCCc1c(C)[nH]c2ccc(F)cc12 | -19.8%
44 | [O-]/C(=C(\C(=S)Nc1ccc(SC(F)F)cc1)[n+]1cccc(CO)c1)c1ccc(Cl)s1 | -5.05%

Row | SMILES | hERG current change (%, negative = inhibition) at 10uM
45 | COc1ccc(OC)c(N2C(=O)CC(Cc3cc(C)cc(C)c3)C2=O)c1 (centres unmarked) | 1.57%
46 | CN(C)CCCN(C(=O)c1ccco1)c1nc2ccc(F)cc2s1.Cl | -70.5%
47 | CCOCc1nnc(NC(=O)C2c3ccccc3Oc3ccccc32)s1 | 32.8%
48 | Cc1sc2nc(CN(Cc3ccccc3)C(=O)NC3CCCCC3)[nH]c(=O)c2c1C | 9.46%
49 | COC(=O)c1c(-c2c(Cl)cccc2Cl)noc1NC(=O)N(C)C | 22.7%
50 | CCOCC(=O)Nc1c(C(=O)Nc2ccc3c(c2)OCCO3)oc2ccccc12 | 0.258%
51 | COc1ccc(N2CCN(C(=O)CCCC3=NS(=O)(=O)c4ccccc4N3)CC2)cc1 | -7.68%
52 | CSC1=NCCN1C(=O)C(C)Oc1ccccc1 (centres unmarked) | 19.1%
53 | CCC(C)NC(=O)CSC1=Nc2ccccc2C2=NC(c3ccccc3)C(=O)N12 (centres unmarked) | -55.3%
54 | Cc1ccc(S(=O)(=O)N2CCN(C(=O)CSc3nnnn3C)C2)cc1 | -15.5%
55 | CCOC(=S)SCC(=O)N1CCc2cc(OC)ccc2C1C1C(=O)CCCC1=O (centres unmarked) | 26%
56 | CCCCc1ccc(N2C(=O)[C@@H]3C(CC(N)=O)NC4(C(=O)Nc5ccc(F)cc54)[C@@H]3C2=O)cc1 (some centres unmarked) | -0.929%
57 | Cc1nn(CCC(=O)NCc2ccc(OC(C)C)cc2)c(=O)c2nn(-c3ccccc3)c(C)c12 | -11.9%
58 | Cc1ccc(-n2c(C)cc(C(=O)Cn3nc(C(=O)O)c4ccccc4c3=O)c2C)cc1 | 16.1%
59 | COc1ccc(OC)c(S(=O)(=O)N2CCCCC2C(=O)N2CCN(c3ccccn3)CC2)c1 (centres unmarked) | -18.8%
60 | Fc1ccc(-c2nnc(Cc3ccc(Cl)cc3)o2)cc1 | -16.7%
61 | CN(C)CC#CCCCCCCC#CCN(C)C | 3.84%
62 | COCCNC(=O)c1cc(S(=O)(=O)N2CCCCC2)ccc1N1CCOCC1 | 1.23%
63 | Cc1ccc(NCc2nnc(SCC(=O)Nc3ncc(C)s3)n2Cc2ccco2)c(C)c1 | 15.7%
64 | CC(=O)c1ccc(OCCCC(=O)N2CCN(S(=O)(=O)c3cc(C)ccc3C)CC2)cc1 | -37.1%
65 | O=C(CCN1C(=O)C2CCCCC2C1=O)Nc1cc([N+](=O)[O-])ccc1Cl (centres unmarked) | -1.62%
66 | Cc1ccccc1NS(=O)(=O)c1nnc(NC(=O)c2ccc(Cl)cc2)s1 | 2.36%

Row | SMILES | hERG current change (%, negative = inhibition) at 10uM
67 | O=C(Nc1ccccc1Cl)Nc1ccnn1C1CCN(C(=O)c2cscn2)CC1 | 21.8%
68 | CCCCC(CC)CNC(=O)Cn1c(=S)[nH]c2ncccc2c1=O (centres unmarked) | 14.6%
69 | CCN(CC)P(=O)(Oc1cccc(C)c1)N(CC)CC | 0.586%
70 | CCOC(=O)CC(=O)Nc1ccc(Br)cc1C(=O)O | -11.3%
71 | O=C(CCn1nc(-c2ccc(Cl)cc2)ccc1=O)N1CCOCC1 | -36.9%
72 | CCOCCCNC(=O)C(NC(=O)c1cnccn1)c1ccc(OC)cc1 (centres unmarked) | 1.22%
73 | O=[N+]([O-])c1ccc(Oc2ccc(Oc3ccc(C(F)(F)F)cn3)cc2)nc1 | -1.44%
74 | C=C1c2cc(C)c(C)cc2NC(=O)N1c1ccccc1 | 23%
75 | Cc1cc(S(=O)(=O)N2CCCCC2CCNC(=O)C(=O)NCc2cccnc2)ccc1F (centres unmarked) | -21.8%
76 | N#Cc1cc2c(nc1SCc1cccc(Cl)c1)CCCCC2 | 8.72%
77 | COc1cccc(C2SCC(=O)N2c2ccc(C)cc2)c1OC (centres unmarked) | -22.3%
78 | O=C(NC12CC3CC(CC(C3)C1)C2)c1cccnc1 | 6.74%
79 | COc1ccc(-c2noc(CCCC(=O)Nc3ccc(C(N)=O)cc3)n2)cc1OC | 3.17%
80 | O=C(O)CCN(CCC(=O)O)c1ccccc1 | 3.16%
81 | COC(=O)c1c(NC(=O)c2ccnn2C)sc(C)c1C | 4.07%
82 | COc1ccc(C(=O)N/C(N)=N/c2nc3ccccc3o2)cc1 | -0.953%
83 | CC(NC(=O)Cc1cccc(C(F)(F)F)c1)c1ccc(F)cc1 (centres unmarked) | 17.6%
84 | Cc1ccc2c(CN3CCCCC3CCO)cc(=O)oc2c1 (centres unmarked) | -45.9%
85 | Cc1ccc(S(=O)(=O)N2CCN(C(=O)c3ccccc3)C2C(C)C)cc1 (centres unmarked) | 5.42%
86 | C#CCOCCOCCOCCNc1nc(N2CCN(C(=O)CCCCCCCCCCNC(=O)[C@H](CO)n3cc(CCCSC)nn3)CC2)nc(N2CCN(C(=O)CCCCCCCCCCNC(=O)[C@@H]([C@H](C)O)n3cc(C)nn3)CC2)n1 | 8.18%
